Assay results taken from patent publication US9351960B2 (priority 2012, dated 2016).
Like-named read-outs stand apart in the source and are kept apart here.

System: cytopathogenic hepatitis C virus (HCV) strain of genotype 1b
Conditions: for HCV titers (lg TCID50 for SPEV cell cultures) in medium samples derived from FEC cultures: Day 2; for HCV titers (lg TCID50 for SPEV cell cultures) in medium samples derived from FEC cultures / decrease of HCV titers: FEC

O=C(O)CCCC(=O)NCCc1c[nH]cn1 [glutaryl histamine]
HCV titers (lg TCID50 for SPEV cell cultures) in medium samples derived from FEC cultures (0.005 μg/mL, treatment 24 hours after infection): 0 lg TCID50
HCV titers (lg TCID50 for SPEV cell cultures) in medium samples derived from FEC cultures (0.005 μg/mL, treatment 24 hours before infection): 5.0 lg TCID50
HCV titers (lg TCID50 for SPEV cell cultures) in medium samples derived from FEC cultures (0.005 μg/mL, treatment at the time of infection): 5.5 lg TCID50
HCV titers (lg TCID50 for SPEV cell cultures) in medium samples derived from FEC cultures (0.05 μg/mL, treatment 24 hours after infection): 1.8 lg TCID50
HCV titers (lg TCID50 for SPEV cell cultures) in medium samples derived from FEC cultures (0.05 μg/mL, treatment 24 hours before infection): 4.5 lg TCID50
HCV titers (lg TCID50 for SPEV cell cultures) in medium samples derived from FEC cultures (0.05 μg/mL, treatment at the time of infection): 5.0 lg TCID50
HCV titers (lg TCID50 for SPEV cell cultures) in medium samples derived from FEC cultures (0.5 μg/mL, treatment 24 hours after infection): 0 lg TCID50
HCV titers (lg TCID50 for SPEV cell cultures) in medium samples derived from FEC cultures (0.5 μg/mL, treatment 24 hours before infection): 4.5 lg TCID50
HCV titers (lg TCID50 for SPEV cell cultures) in medium samples derived from FEC cultures (0.5 μg/mL, treatment at the time of infection): 6.0 lg TCID50
HCV titers (lg TCID50 for SPEV cell cultures) in medium samples derived from FEC cultures (5.0 μg/mL, treatment 24 hours after infection): 0 lg TCID50
HCV titers (lg TCID50 for SPEV cell cultures) in medium samples derived from FEC cultures (5.0 μg/mL, treatment 24 hours before infection): 4.5 lg TCID50
HCV titers (lg TCID50 for SPEV cell cultures) in medium samples derived from FEC cultures (5.0 μg/mL, treatment at the time of infection): 6.5 lg TCID50
HCV titers (lg TCID50 for SPEV cell cultures) in medium samples derived from FEC cultures (50.0 μg/mL, treatment 24 hours after infection): 2.5 lg TCID50
HCV titers (lg TCID50 for SPEV cell cultures) in medium samples derived from FEC cultures (50.0 μg/mL, treatment 24 hours before infection): 4.5 lg TCID50
HCV titers (lg TCID50 for SPEV cell cultures) in medium samples derived from FEC cultures (50.0 μg/mL, treatment at the time of infection): 6.2 lg TCID50
HCV titers (lg TCID50 for SPEV cell cultures) in medium samples derived from FEC cultures (500.0 μg/mL, treatment 24 hours after infection): 0 lg TCID50
HCV titers (lg TCID50 for SPEV cell cultures) in medium samples derived from FEC cultures (500.0 μg/mL, treatment 24 hours before infection): 4.5 lg TCID50
HCV titers (lg TCID50 for SPEV cell cultures) in medium samples derived from FEC cultures (500.0 μg/mL, treatment at the time of infection): 5.5 lg TCID50
decrease of HCV titers (cells treated 24 hours before infection): 2.0 lg
decrease of HCV titers (introduced immediately after infection): 1.0-1.5 lg
infectious activity of HCV in the FEC cultures (added 24 hours after infection, culture fluid derived 48 hours after infection): completely suppressed
